This is one part of the list. The main result of the screen is listed elsewhere. These columns were measured beside it and carry no call.
Key:
Test in all cases: Primary Screen for Target Class Profiling of Small Molecule Inhibitors of Methyltransferases
[1] = molecular target: Glycine N-methyltransferase (Homo sapiens) (UniProt Q14749); details: purified enzyme, MTase-Glo SAH luminescence; measured here: GNMT inhibition; at 40 µM; stronger effect = lower value
In short: (§1)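 Each enzyme was reacted with SAM and its substrate, with compounds tested once at 40 uM; SAH formed was read by MTase-Glo luminescence.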

[2] = molecular target: Guanidinoacetate N-methyltransferase (Homo sapiens) (UniProt Q14353); details: purified enzyme, MTase-Glo SAH luminescence; measured here: GAMT inhibition; at 40 µM; stronger effect = lower value
In short: as §1

[3] = molecular target: Histamine N-methyltransferase (Homo sapiens) (UniProt P50135); details: purified enzyme, MTase-Glo SAH luminescence; measured here: HNMT inhibition; at 40 µM; stronger effect = lower value
In short: as §1

[4] = molecular target: Nicotinamide N-methyltransferase (Homo sapiens) (UniProt P40261); details: purified enzyme, MTase-Glo SAH luminescence; measured here: NNMT inhibition; at 40 µM; stronger effect = lower value
In short: as §1

[5] = molecular target: Phenylethanolamine N-methyltransferase (Homo sapiens) (UniProt P11086); details: purified enzyme, MTase-Glo SAH luminescence; measured here: PNMT inhibition; at 40 µM; stronger effect = lower value
In short: as §1
% is set by controls: 0 for no effect and ±100 for the full control effect.

SMILES | activity change, negative = inhibition [1] [%] | activity change, negative = inhibition [2] [%] | activity change, negative = inhibition [3] [%] | activity change, negative = inhibition [4] [%] | activity change, negative = inhibition [5] [%]
CC(NC(=O)CC(=O)O)c1nc2ccccc2c(=O)[nH]1 (stereo not given) | 2.48 | 7.18 | 10.1 | -2.93 | 6.57
O=C(Nc1cccc(-c2nnc3n2CCCC3)c1)c1ccccn1 | -7.2 | -6 | -7.83 | -9.34 | -26.5
CNc1nc(Nc2ccc(C(=O)N3CCOCC3)cc2OC)ncc1Cl | -4.91 | -5.16 | 4.38 | -16.6 | -10.1
CCOCCn1nc(CC)c2nc(N3CCC(C(=O)O)CC3)nc(Nc3cc(C)ccn3)c21 | -28.2 | -16 | -12.7 | -33.6 | -16
CC(=O)c1ccc(Nc2nc3c(S(=O)(=O)c4ccc(Br)cc4)nnn3c3ccccc23)cc1 | -7.06 | 0 | -0.004 | -5.47 | -3.36
CC1(C(=O)NC2CCCCC2)Cn2c(cc3sccc32)C(=O)N1CCc1ccc(Cl)cc1 (stereo not given) | -1.28 | 0.986 | 5.15 | 1.13 | -1.7
CCCn1c(=O)c2ccccc2n2c(SCC(=O)Nc3ccc4c(c3)OCCO4)nnc12 | -12.9 | 2.99 | 1.93 | -7.89 | -2.67
Cc1ccsc1CN1CCCOCCNC(=O)[C@@H]2CCCC[C@@H]21 | -0.122 | 1.22 | 2.24 | -4.37 | 4.73
COc1ccc(CNc2nc3c(-c4ccc(C)cc4)nnn3c3ccccc23)cc1 | -2.6 | 2.68 | 1.82 | 3.23 | -3.31
Cc1cc(CO)c(O)c(C(=O)CC2CC(=O)NC(=O)C2)c1 | 3.96 | 4.16 | 6.84 | -9.58 | 5.44
CC1CCN(S(=O)(=O)c2ccc3c(ccn3CCC(=O)NCCCN3CCOCC3)c2)CC1 | 4.21 | 4.59 | -1.22 | 7.06 | 0.789
CN(C)CCNC(=O)c1cc2n(n1)CC(C)(C(=O)NC1CCCCC1)N(C)C2=O (stereo not given) | 6.11 | 0 | 8.89 | 5.73 | 4.82
CN(Cc1ccc(Oc2ncccn2)cc1)CC1CCN(CCc2ccc(F)cc2)CC1 | -3.27 | -7.18 | -7.92 | -7.25 | -10.9
CCOc1ccccc1CN1CCC2(Cc3ccccc3CNC2=O)C1 (stereo not given) | -8.12 | -6.55 | -17.2 | -13.7 | 0.478
Cc1nc(C2CC(O)C2)cc(N2CCC(c3nncn3C)CC2)n1 (stereo not given) | 0.018 | -2.66 | -2.46 | -0.524 | 1.4
Cc1[nH]c2ccccc2c1C(=O)Cn1nc2n(Cc3ccc(F)cc3)c(=O)c3ccccc3n2c1=O | 8.93 | 1.35 | 2.42 | -0.249 | 8.37
CCN1C(=O)C=CC1=O | 3.97 | 9.22 | 8.12 | -6.21 | -1.35
CCCCN1C(=O)c2cc(C(=O)Nc3cc(OC)ccc3OC)nn2CC1(C)C(=O)NC1CCCC1 (stereo not given) | 1.7 | 0 | 2.88 | -1.24 | 1.39
